These results are taken from the supplement of paper PMC4604168 (melanoma cell lines).

Some of the results follow. Most values come without repeats; read them as rough.
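Also: cells treated in 1,536-well plates, then fixed and DAPI-stained, with nuclei counted from automated high-throughput microscope images.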

One experiment concerns WM3619. Description: cell count relative to DMSO control; melanoma cells; higher = more viable cells. The settings on record: library dose: standard library concentration; 72 h.
As to `O=c1[nH]nc(Sc2ncc([N+](=O)[O-])s2)n1-c1ccc2c(c1)OCCO2` + c1cc(-c2cnn3cc(-c4ccc(OCCN5CCCCC5)cc4)cnc23)ccn1 [Dorsomorphin] (first compound 1 µM, partner dose 2 µM), the cell count was 76.1%. As to `O=c1[nH]nc(Sc2ncc([N+](=O)[O-])s2)n1-c1ccc2c(c1)OCCO2` + COc1ccc2c(c1)CCC1C2CCC2(C)C(NCCCCCCN3C(=O)C=CC3=O)CCC12 [U73122] (first compound 1 µM, partner dose 2 µM), the cell count was found to be 75%. The same measure, in the same setting: as for `C[C@@H]1CCN(C(=O)CC#N)C[C@@H]1N(C)c1ncnc2[nH]ccc12` + Oc1nc(-c2ccc(C(F)(F)F)cc2)nc2c1CSCC2 [XAV939] (first compound 5 µM, partner dose 10 µM), the figure is 57.8%.

The next experiment concerns WM451Lu. Described as above. The settings on record: library dose: standard library concentration; 72 h.
`O=c1[nH]nc(Sc2ncc([N+](=O)[O-])s2)n1-c1ccc2c(c1)OCCO2` + COc1cc(N2CCC(N3CCN(C)CC3)CC2)ccc1Nc1ncc(Cl)c(Nc2ccccc2S(=O)(=O)C(C)C)n1 [NVP-TAE684] (first compound 1 µM, partner dose 0.4 µM) showed a cell count of 88.7%. The same measure, in the same setting: as for `O=c1[nH]nc(Sc2ncc([N+](=O)[O-])s2)n1-c1ccc2c(c1)OCCO2` + N#Cc1c(O)c2c(-c3ccc(-c4ccccc4O)cc3)csc2[nH]c1=O [A769662] (first compound 1 µM, partner dose 10 µM), the figure is 100%; as for `O=c1[nH]nc(Sc2ncc([N+](=O)[O-])s2)n1-c1ccc2c(c1)OCCO2` + O=c1cc(-c2cccc3c2Sc2ccccc2S3)oc(N2CCOCC2)c1 [KU55933] (first compound 1 µM, partner dose 5 µM), 83.8%. For `O=C(Nc1cccc(Cl)c1)Nc1ncc(CCNc2ncnc3ccsc23)s1` + CC(C)CCN1c2nc(Nc3cc(F)c(O)c(F)c3)ncc2N(C)C(=O)C1C [BID1870] (first compound 0.004 µM, partner dose 1 µM), the cell count was 36.3%. Regarding `Cn1cncc1[C@@](N)(c1ccc(Cl)cc1)c1ccc2c(c1)c(-c1cccc(Cl)c1)cc(=O)n2C` [tipifarnib] + COc1cc(N2CCC(N3CCN(C)CC3)CC2)ccc1Nc1ncc(Cl)c(Nc2ccccc2S(=O)(=O)C(C)C)n1 [NVP-TAE684] (first compound 0.05 µM, partner dose 0.4 µM), the cell count was found to be 57.7%.

Turning to `C[C@@H]1CCN(C(=O)CC#N)C[C@@H]1N(C)c1ncnc2[nH]ccc12` + CCCCCCCCCCCC1=C(O)C(=O)C=C(O)C1=O [Embelin] (first compound 5 µM, partner dose 6 µM), the cell count amounted to 101%. In turn, `C[C@@H]1CCN(C(=O)CC#N)C[C@@H]1N(C)c1ncnc2[nH]ccc12` + Cc1cc([N+](=O)[O-])ccc1NS(=O)(=O)c1cc(Cl)ccc1Cl [FH535] (first compound 5 µM, partner dose 5 µM) showed a cell count of 115%. As to `O=c1[nH]nc(Sc2ncc([N+](=O)[O-])s2)n1-c1ccc2c(c1)OCCO2` + COc1ccc(COc2ccc(Cc3cnc(N)nc3N)cc2OC)cc1 [GW2580] (first compound 1 µM, partner dose 5 µM), the cell count amounted to 126%.

Compound `O=C(O)c1ccc(-c2c[nH]c3ncc(-c4ccccc4)cc23)cc1C1CCCC1` + Oc1cc(-c2nc(-c3ccccc3)[nH]c2-c2ccncc2)ccc1Cl [L779450] (first compound 0.8 µM, partner dose 1 µM) gave a cell count of 50.3%. Compound `CC1(C)NC(=O)N(c2ccc([N+](=O)[O-])c(C(F)(F)F)c2)C1=O` [nilutamide] + COc1ccc(-c2ccc3c(N4CCOCC4)nc(N4C[C@@H](C)O[C@@H](C)C4)nc3n2)cc1CO [KU0063794] (first compound 5 µM, partner dose 0.1 µM) yielded a cell count of 95%.

On to `O=c1[nH]nc(Sc2ncc([N+](=O)[O-])s2)n1-c1ccc2c(c1)OCCO2` + C[C@@H](Oc1cc(-c2cnn(C3CCNCC3)c2)cnc1N)c1c(Cl)ccc(F)c1Cl [Crizotinib] (first compound 1 µM, partner dose 1 µM), for which the cell count came to 80.9%. On the same count and under the same terms, as for `O=C(Nc1cccc(Cl)c1)Nc1ncc(CCNc2ncnc3ccsc23)s1` + Cc1cc([N+](=O)[O-])ccc1NS(=O)(=O)c1cc(Cl)ccc1Cl [FH535] (first compound 0.004 µM, partner dose 5 µM), the figure is 53.9%.
